Test results as given in article PMC4336329 (PLoS ONE, 2015).
Screen size: about 310,000 compounds; about 14,000 (4.5%) showed an effect of 50% or more. Effects have a minus sign here. The list shows a part of the results.

Molecular target: human ether-à-go-go-related gene (hERG) potassium channel (human, UniProt Q12809)
Assay: primary screen, population patch clamp on CHO cells stably expressing hERG
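Further: peak tail current of the secondary pulse compared with the same well before compound.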

human ether-à-go-go-related gene (hERG) potassium channel, sequence (Q12809 whole entry, looked up): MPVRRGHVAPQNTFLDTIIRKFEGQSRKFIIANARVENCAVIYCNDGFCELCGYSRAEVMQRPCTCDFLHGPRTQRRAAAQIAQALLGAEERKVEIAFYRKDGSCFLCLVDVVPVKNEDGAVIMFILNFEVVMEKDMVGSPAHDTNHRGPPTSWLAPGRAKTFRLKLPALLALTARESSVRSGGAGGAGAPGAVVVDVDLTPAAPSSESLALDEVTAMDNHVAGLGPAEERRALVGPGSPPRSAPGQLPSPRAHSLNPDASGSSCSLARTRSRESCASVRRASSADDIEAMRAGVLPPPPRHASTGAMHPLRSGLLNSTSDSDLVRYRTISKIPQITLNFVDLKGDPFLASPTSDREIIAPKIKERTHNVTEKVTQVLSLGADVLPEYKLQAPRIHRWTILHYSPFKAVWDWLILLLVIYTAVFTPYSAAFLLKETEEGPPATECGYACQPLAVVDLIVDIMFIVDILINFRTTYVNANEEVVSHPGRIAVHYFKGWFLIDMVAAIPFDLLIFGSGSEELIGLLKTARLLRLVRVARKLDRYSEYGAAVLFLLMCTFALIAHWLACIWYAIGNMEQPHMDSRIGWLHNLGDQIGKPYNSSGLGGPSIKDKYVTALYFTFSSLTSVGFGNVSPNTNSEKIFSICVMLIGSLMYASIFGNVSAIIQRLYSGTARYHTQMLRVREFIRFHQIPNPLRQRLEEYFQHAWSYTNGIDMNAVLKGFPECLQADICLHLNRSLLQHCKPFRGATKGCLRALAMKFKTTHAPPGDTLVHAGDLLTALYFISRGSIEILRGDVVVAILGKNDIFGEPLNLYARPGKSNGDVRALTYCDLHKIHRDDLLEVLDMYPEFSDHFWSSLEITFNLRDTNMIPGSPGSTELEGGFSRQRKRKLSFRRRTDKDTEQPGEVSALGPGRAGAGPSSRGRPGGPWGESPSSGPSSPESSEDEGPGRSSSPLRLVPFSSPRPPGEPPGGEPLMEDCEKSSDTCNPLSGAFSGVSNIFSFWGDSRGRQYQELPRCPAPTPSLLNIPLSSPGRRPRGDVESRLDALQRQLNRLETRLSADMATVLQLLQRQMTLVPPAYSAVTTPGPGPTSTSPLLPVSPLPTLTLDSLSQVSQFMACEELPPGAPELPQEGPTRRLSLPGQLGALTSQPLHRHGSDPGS

SMILES | hERG current change (%, negative = inhibition) at 10uM
O=C(CN1C(=O)c2cccc([N+](=O)[O-])c2C1=O)NCc1ccccc1 | -10.8%
COc1ccc(C2Nc3ccccc3C(=O)N2NS(C)(=O)=O)c(OC)c1 (centres unmarked) | 40.5%
C=CCNC(=O)CN1c2cccc3cccc(c23)S1(=O)=O | 14.5%
CCOC(=O)c1c(NC(=O)CSc2nc3c(c(=O)n(C)c(=O)n3C)n2CC)sc(C)c1C | 6.72%
O[C@H]1[C@H](O)[C@@H](O)CN2CC[C@H](O)[C@H]12 | 15.2%
C=CCN1C(=O)c2ccc(C(=O)NCCc3ccc(F)cc3)cc2C1=O | 8.87%
CC(=O)n1cc(/C=N/NC(=O)c2ccc(Cl)cc2)c2ccccc21 | 10.6%
CS(=O)(=O)Nc1ccccc1C(=O)NCc1ccccc1Cl | -5.24%
O=C(COC(=O)c1ccccc1[N+](=O)[O-])NNC(=O)c1cccs1 | -15.7%
CC(NC(=O)CCNS(=O)(=O)c1ccccc1)c1ccccc1 (centres unmarked) | 14.2%
COc1ccc(N2C(=O)C3CCCCC3C2=O)cc1NC(=O)c1ccccc1 (centres unmarked) | -16.9%
CCN(CC(=O)NCc1cccs1)C(=O)CCCOc1ccc(C(C)(C)C)cc1 | -52.6%
COc1ccc(S(=O)(=O)N2CCN(Cc3cccc(OC)c3OC)CC2)cc1 | -1.09%
CC(C)[C@H](NC(=O)Nc1ccc2c(c1)OCCO2)C(=O)O | 8.19%
Cc1ccc(CN(C)C(=O)c2cccc(S(=O)(=O)N3CCc4ccccc4C3)c2)o1 | -23.8%
COc1ccc(OCc2cc(C(=O)N3CCN(CC4CC4)CC3)no2)c(Cl)c1 | -48%
COc1ccc(NC(=O)COC(=O)C2CC2)cc1S(=O)(=O)N1CCCCC1 | -33.2%
CCOC(=O)C1=C(C)Nc2ncnn2C1c1cccs1 (centres unmarked) | 10.1%
N#C/C(=C\c1c(N2CCCCCC2)nc2ccccn2c1=O)C(=O)NC1CCS(=O)(=O)C1 (centres unmarked) | -4.21%
Cc1ccc(C2C(C(=O)c3cccs3)=C(O)C(=O)N2CCN2CCOCC2)o1 (centres unmarked) | -7.39%
COc1ccc(-c2cc(=O)oc3cc(OCC(=O)NCC4CCC(C(=O)O)CC4)ccc23)cc1 (centres unmarked) | 8.5%
CN1CCN(S(=O)(=O)c2ccc(Cl)c3ccccc23)CC1 | -1.62%

SMILES | hERG current change (%, negative = inhibition) at 10uM
Cc1nnc(SCC(=O)NC2CCCc3c2cnn3-c2ccc(F)cc2F)o1 (centres unmarked) | -1.23%
CCc1c(C)nc2ncnn2c1NCCc1ccc(OC)c(OC)c1 | -17.1%
CC(C)(C)n1cc(C(=O)c2ccccc2)cc1-c1ccccc1 | 7.52%
Cc1ccccc1NC(=S)NC(=O)/C=C/c1ccco1 | 21%
FC(F)(F)c1cccc(N2CCN(Cc3cccnc3)CC2)c1 | -8.03%
CNCCc1ccccc1 | 10.6%
CC(CN1CCCCC1)OC(=O)c1ccc2c(c1)OCCO2.Cl (centres unmarked) | -8.83%
CCC(=O)Nc1c(-c2cccs2)c(=O)c2ccccc2n1C | 3.56%
Fc1cccc2sc(Nc3nnc(-c4ccccc4)o3)nc12 | 20.5%
COc1ccc(Nc2c3c(nc4ccccc24)CCC3)cc1.Cl | -70.9%
CC(C)Cc1nc(N2CCC(C(N)=O)CC2)c2nnn(Cc3ccccc3)c2n1 | 23.4%
Cc1ccccc1OCc1nnc(SCC(=O)Nc2ccc3c(c2)oc2ccccc23)n1C | 6.62%
CC(C)C[C@H](NC(=O)c1nc[nH]c1C(=O)NCc1ccccc1)C(=O)OCc1ccccc1 | -7.88%
O=C(c1nn(Cc2ccccc2)c(=O)c2ccccc12)N1CCc2ccccc2C1 | -29%
Cc1ccc(/C(O)=C/C(=O)C(=O)NNC(=O)C(O)(c2ccccc2)c2ccccc2)cc1 | 14.5%
COc1ccc(OC)c(NC(=O)C2C3CCC(C3=C(C)C)C2C(=O)O)c1 (centres unmarked) | -3.72%
CC(=O)c1c[nH]c2ccc(C)cc2c1=O | -3.43%
CCCc1cc(C(=O)N2CCCC(Nc3ccc(C)c(C)c3)C2)n(C)n1 (centres unmarked) | 1.01%
COc1ccc(N2C(=O)C3CCCN3C2c2ccc(C)cc2)cc1 (centres unmarked) | 7.11%
Cc1c(C(=O)Nc2ccccn2)oc2ccc(Br)cc12 | -5.13%
CC(CN1c2ccccc2Sc2ccccc21)N(C)C.Cl (centres unmarked) | -35.6%
Cl.O=C(CNC1CCN(Cc2ccccc2)CC1)Nc1ccc(S(=O)(=O)N2CCCCC2)cc1 | -69.7%
